According to the supplement of paper PMC5499739:
Over roughly 16,000 sequences, “Z-score” has its median near -0.37; the highest 2% begin near 3.2. This is one part of the list.

test system: RBM10 RRM1-ZnF (GST-tagged construct); experiment: RNAcompete 7-mer binding Z-score; higher = stronger binding preference
Procedure, shortened: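 GST-tagged RBM10 constructs (20 pmol) and a designed pool of 241 399 RNAs up to 41 nt (1.5 nmol) were allowed to bind for 30 min at 4°C in 1 ml Hepes pH 7.8 buffer with glutathione Sepharose beads. After four 2-min washes at 4°C, bound RNA was identified by microarray hybridisation. Enrichment was scored per heptamer motif as a one-sided Z-score across the probes containing it.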

| Sequence | RNAcompete 7-mer binding Z-score |
| --- | --- |
| GCACUAG | -0.0155 |
| CCCAGAU | -0.756 |
| AGCAGAC | 0.0398 |
| GGGGUUU | 3.16 |
| AGUUAAU | -0.236 |
| GUCUGGA | -0.035 |
| GAUCUGU | -0.506 |
| GAGGCAG | 1.12 |
| UCUACAG | -0.665 |
| CGUUUCU | -0.818 |
| GGCGGUC | 0.657 |
| CAGUGGU | 0.787 |
| GAGGAUA | 2.15 |
| AAUUUAU | -0.49 |
| GACCAUC | -0.867 |
| UCAAAUG | -0.373 |
| AUUUGGC | -0.457 |
| CGAAGUG | 0.722 |
| GCUCUAC | -0.707 |
| AUGGCAU | 0.514 |
| GGUCAAG | 1.18 |
| AGAACAA | -0.136 |
| UGUGAUG | 0.339 |
| AGGCGCC | -0.366 |

| Sequence | RNAcompete 7-mer binding Z-score |
| --- | --- |
| AGAGGGU | 2.22 |
| UGAGGAA | 1.63 |
| CUGUAUU | -0.746 |
| AAACGAC | -0.487 |
| CCAGGCU | -0.607 |
| GAUGCUG | 0.196 |
| CAAAUGC | -0.73 |
| GUGUGUC | 0.137 |
| CGACAAA | -0.483 |
| CCAAUAU | -0.714 |
| UGUCUCG | -0.649 |
| CGGUAGG | 1.82 |
| CCUUCCA | -0.717 |
| UGCCUCA | -0.808 |
| AUUUGGG | 1.65 |
| UGCGCAU | -0.285 |
| GGGUUUU | 2.53 |
| GUUCCGC | -0.568 |
| GGAGCUC | 0.15 |
| AGGAGCA | 1.5 |
| GAGAUGC | 0.235 |
| AGAUAUA | -0.181 |
| AUCGGAA | 0.196 |
| AUACGCU | -0.581 |

| Sequence | RNAcompete 7-mer binding Z-score |
| --- | --- |
| CUUGAUU | -0.75 |
| CACAACA | -0.363 |
| GAAACUG | -0.126 |
| CAAGUGA | 0.0333 |
| UCCCCCA | -0.389 |
| CCGUCCA | -0.633 |
| AUCAUGG | 0.586 |
| GGCUUAA | -0.0122 |
| GCGUCGG | 0.703 |
| UUAGGUC | -0.158 |
| CUCCUGA | -0.756 |
| CGCUGGA | 0.00729 |
| GGACUUC | -0.0999 |
| UGGGUCC | 1.1 |
| AUCCUGG | -0.571 |
| AUGUCUU | -0.789 |
| GUCGGAC | 0.108 |
| CGUCGCG | -0.0837 |
| CACCAGA | -0.558 |
| GGCCCCA | -0.457 |
| CGGAUGU | 1.04 |
| UAUCUUA | -0.756 |
| CUACCAA | -0.642 |
| CGACUAA | -0.672 |

| Sequence | RNAcompete 7-mer binding Z-score |
| --- | --- |
| GUGUGGU | 2.39 |
| GUAGAUA | 0.384 |
| AGAUGAG | 1.43 |
| UCCACUA | -0.704 |
| AGCACGA | 0.0365 |
| UAGCCAC | -0.441 |
| GGCUCCA | -0.366 |
| GUCUACU | -0.649 |
| ACAGGGG | 3.33 |
| CAGCUCA | -0.837 |
| GGCACGC | 0.316 |
| GGUAGUC | 1.25 |
| AACAAGC | -0.331 |
| CACCAAC | -0.714 |
| GUGUUAU | -0.0512 |
| GGCCAAG | 0.0495 |
| ACAGAAC | -0.396 |
| UAAUACA | -0.373 |
| CAGAGAC | -0.136 |
| AUUGUCG | -0.34 |
| GAUUAUC | -0.5 |
| GGUCAUA | 0.199 |
| UUUAACG | -0.594 |
| GGAUCAA | 0.677 |

| Sequence | RNAcompete 7-mer binding Z-score |
| --- | --- |
| AGCCAUA | -0.646 |
| UUACCUA | -0.772 |
| UCCAAGG | -0.0999 |
| AUCAUUU | -0.863 |
| CUCGCGG | 0.0138 |
| UGUCAUC | -0.571 |
| CGUCUUC | -0.815 |
| UGUUGCU | -0.633 |
| AGAAUCG | -0.129 |
| UAUUAAG | -0.425 |
| GCUGGGU | 2.3 |
| GCCUACU | -0.902 |
| ACAAACG | -0.149 |
| UAGGGUA | 3.47 |
| GGAGGUG | 3.72 |
| AUGUAGA | 0.521 |
| CCGUCAU | -0.659 |
| GCAAUUU | -0.633 |
| GUGUAAG | 1.19 |
| GCUGUAG | 0.0333 |
| CACCCGG | -0.227 |
| UCCGGAG | -0.0447 |
| CUGGCGC | -0.0902 |
| AUUAUGA | -0.106 |

| Sequence | RNAcompete 7-mer binding Z-score |
| --- | --- |
| CAGAACC | -0.578 |
| UGUUCAA | -0.604 |
| GCGUUGC | -0.22 |
| GCCUUCG | -0.772 |
| CGUUGCU | -0.552 |
| UGUUGUU | -0.113 |
| CUCUAGC | -0.802 |
| UGAUACC | -0.318 |
| UCCAUAU | -0.688 |
| AUCCAGU | -0.626 |
| CACGCCC | -0.516 |
| CAUUAUC | -0.753 |
| AUAGUGA | 0.67 |
| CCCGUGU | -0.285 |
| UGGCUGC | 0.0788 |
| CCAAACG | -0.396 |
| UAGUACA | -0.162 |
| GUCGUUU | -0.145 |
| GCAGAAA | 0.387 |
| GACUGGC | -0.00246 |
| UUCAUAG | -0.659 |
| UGAUCGA | -0.23 |
| AACCGGU | -0.149 |
| GAGUUUU | -0.0382 |

| Sequence | RNAcompete 7-mer binding Z-score |
| --- | --- |
| UUUAGGC | -0.321 |
| AACUUUC | -0.85 |
| CUAUGAG | -0.233 |
| CCUACCU | -0.766 |
| GGGGCAA | 2.79 |
| UAGCUCC | -0.672 |
| UGUACGC | -0.022 |
| UCCCCUG | -0.158 |
| CUCCGCG | -0.477 |
| AAGGCUG | 0.859 |
| AUCUGAU | -0.668 |
| UUGUGGC | 0.0788 |
| AUGAUGG | 2.89 |
| GACGGCG | 0.673 |
| CCGCUUG | -0.665 |
| GGGUCAU | 1.32 |
| CACACUC | -0.604 |
| GAGCUGC | -0.0414 |
| GGAUCCG | 0.342 |
| CUUGAAA | -0.584 |
| GGAACAU | 0.524 |
| AAUGUUA | -0.175 |
| CCGUCUG | -0.694 |
| CGGUGAU | 0.586 |

| Sequence | RNAcompete 7-mer binding Z-score |
| --- | --- |
| UGUACUA | -0.415 |
| CCCUAAG | -0.493 |
| AAAGAGG | 1.51 |
| CAAACGC | -0.626 |
| AACGACG | -0.279 |
| CCUCCAU | -0.805 |
| GAUAUAG | 0.592 |
| CUGCGUC | -0.591 |
| CGUAUGC | -0.542 |
| ACUCUAU | -0.847 |
| GGGGAUU | 2.75 |
| UUGGGAA | 2.12 |
| CUCGGCA | -0.613 |
| ACACCUC | -0.685 |
| GCAAGGG | 3.46 |
| GACAACC | -0.428 |
| CAAAGGU | 1.15 |
| CUUAAAU | -0.629 |
| GUGCCUA | -0.308 |
| CCAGUCG | -0.457 |
| UUCUGCA | -0.75 |
| AUACGAC | -0.422 |
| UGUGAUC | -0.34 |
| CCUCCUG | -0.746 |

| Sequence | RNAcompete 7-mer binding Z-score |
| --- | --- |
| UUUAGUA | -0.558 |
| CUUACUU | -0.798 |
| CAAUAUU | -0.711 |
| UGCCGAG | -0.158 |
| CCUUGUA | -0.733 |
| CUAGGUG | 0.719 |
| CUAUGGG | 1.13 |
| ACAUGGC | 0.192 |
| UACCAAU | -0.727 |
| UGAUGAG | 0.573 |
| CUGUGCU | -0.782 |
| CUAGGGG | 2.46 |
| AUCGCUC | -0.678 |
| GGCCCCG | 0.176 |
| UGAAUGG | 2.5 |
| GGAAGCG | 2.9 |
| CGUAGGU | 0.949 |
| UCUCUUU | -0.841 |
| CAGGGGU | 3.01 |
| UAGAGAU | 0.27 |
| UGCAUGU | -0.217 |
| AGCCCAG | -0.181 |
| UAACCGG | -0.285 |
| CGAAUUA | -0.467 |

| Sequence | RNAcompete 7-mer binding Z-score |
| --- | --- |
| UCUGUAG | -0.467 |
| UGAAGCC | -0.48 |
| AGUGCCA | -0.35 |
| AUUAAAC | -0.636 |
| ACUUGGA | 0.313 |
| GACCUAU | -0.863 |
| UGGUGCC | 0.433 |
| CUCAUUG | -0.672 |
| AAAAUUC | -0.675 |
| CCACCGC | -0.353 |
| GUCGCUU | -0.623 |
| GUGUCGA | 0.108 |
| GGAAAAC | 1.1 |
| ACCAAGA | -0.636 |
| UGCUUGU | -0.636 |
| UCACACU | -0.467 |
| GCAUGGU | 1.14 |
| CCCUGUG | -0.327 |
